Data as given in PubChem BioAssay AID588453 (National Center for Advancing Translational Sciences (NCATS), 2011).
Several values for one entry are separate records, joined by “and”; a condition that tells them apart may be missing. Equal entries are not always repeated. The campaign covered roughly 390,000 compounds. About 4,000 (1%) were called active. The inconclusive results got no clear call from the source; some entries with a clear call stand among them for comparison. The call rests on the fitted dose curve; in most records, active means well fitted inhibition curve with a large enough effect; inconclusive means small, poorly fitted or top-dose-only effect; inactive means no such curve, though single readings can be large or run the other way. A potency beside an inconclusive call is a rough fit, not a confirmed value.

target: Thioredoxin reductase 1, cytoplasmic (Rattus norvegicus) (UniProt O89049); experiment: qHTS Assay for Inhibitors of Mammalian Selenoprotein Thioredoxin Reductase 1 (TrxR1): qHTS; conditions: recombinant rTrxR1, NADPH fluorescence consumption, selenite substrate; series mostly up to 114 µM; activity change, negative = inhibition: at the top concentration; further: nearly all actives have a fitted effect of over 65% in size
Chain of UniProt O89049 (O89049 whole entry, looked up): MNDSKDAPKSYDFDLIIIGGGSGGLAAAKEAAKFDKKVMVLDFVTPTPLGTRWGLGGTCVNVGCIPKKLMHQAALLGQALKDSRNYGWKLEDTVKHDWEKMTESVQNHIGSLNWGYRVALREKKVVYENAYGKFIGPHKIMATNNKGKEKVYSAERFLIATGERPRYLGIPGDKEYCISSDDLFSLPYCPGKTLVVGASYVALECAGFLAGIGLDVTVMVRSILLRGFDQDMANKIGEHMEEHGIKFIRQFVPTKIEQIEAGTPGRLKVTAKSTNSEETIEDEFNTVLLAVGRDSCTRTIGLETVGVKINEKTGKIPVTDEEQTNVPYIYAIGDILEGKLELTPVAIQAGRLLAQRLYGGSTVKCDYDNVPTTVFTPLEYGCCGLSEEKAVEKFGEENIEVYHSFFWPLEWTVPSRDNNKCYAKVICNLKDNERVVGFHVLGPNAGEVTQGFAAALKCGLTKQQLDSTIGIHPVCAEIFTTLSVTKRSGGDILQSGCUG
How it was run: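 Rat TrxR1 (90 nM in the dispensed reagent) was pre-reduced with 400 uM NADPH for 5 min at room temperature, then incubated with compound for 15 min. After 400 uM selenite was added, NADPH fluorescence (Ex 340/Em 450 nm) was followed for 8 min.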
On the % scale 0 is the no-effect control and ±100 the full control effect; potency means the concentration at half of the fitted maximal effect; tags describe the fitted curve by direction and shape.

SMILES	Potency	activity change, negative = inhibition
CC(=O)c1ccc2c(c1)C1C=CCC1C(c1ccc(S(=O)(=O)N3CCOCC3)cc1)N2 (centres undefined)	active: 50.1 µM	–
CCOC(=O)c1cc2n(c1N)-c1ccccc1C2=O	inconclusive: 39.8 µM [inhibitor, partial curve, poor fit]	–
O=C1CC(N(O)c2ccccc2)C(=O)N1c1ccc(Cl)c(Cl)c1 (centres undefined)	–	inactive: 0.482%
NC(=S)n1[nH]c(-c2ccc([N+](=O)[O-])cc2)c(N=Nc2ccccc2[N+](=O)[O-])c1=O	–	inactive: 20.3%
O=C(/C=C/c1ccco1)NCc1ccc(F)cc1	inconclusive: 28.2 µM [inhibitor, single point]	–
Cc1ccc(C(=O)NCc2ccco2)cc1S(=O)(=O)Nc1cccc(C)c1C	active: 79.4 µM	–
CCOCCCNC(=S)Nc1ccc2nc(N3CCCC3)cc(C)c2c1	inconclusive: 17.8 µM [inhibitor, full curve]	–
Cc1ccc(-c2c3c(=O)n(C)c(=O)n(C)c3cn2Cc2ccccc2)cc1	inconclusive: 28.2 µM [inhibitor, partial curve]	–
CCOc1ccc(C2Nc3cccc4cccc(c34)N2)cc1OC	active: 28.2 µM	–
N#Cc1ccccc1NC(=O)CSc1nc(-c2ccccc2)cc(C(F)(F)F)c1C#N	–	inactive: 4.3%
CCc1ccc(N2CC(c3nnc(NC(=O)c4ccco4)s3)CC2=O)cc1 (centres undefined)	–	inactive: 6.39%
O=c1c2c(-c3ccccc3)csc2ncn1/N=C/c1cn(-c2ccccc2)nc1-c1cccs1	–	inactive: 25.9%
Cc1nc(SCC(=O)Nc2ccc3c(c2)OCO3)c(C#N)c2c1CCCC2	inconclusive: 28.2 µM [inhibitor, single point]	–
C/C(=N\NC(=O)Cc1cccn1C)c1ccco1	inconclusive: 63.1 µM [inhibitor, partial curve, poor fit]	–
O=C(NN1C(=O)c2ccccc2NC1c1ccc([N+](=O)[O-])o1)c1ccccc1 (centres undefined)	inconclusive: 50.1 µM [inhibitor, partial curve]	–
CCn1c(N)c(C(=O)NC)sc1=S	–	inactive: -16.7% [at 57.1 µM]
Cc1ccc(S(=O)(=O)NC(=O)NN2CCCCCC2)cc1	inconclusive: 89.1 µM [inhibitor, partial curve, poor fit] and inconclusive: 42.3 µM [inhibitor, single point] and inconclusive: 11.9 µM [inhibitor, partial curve]	–
O=C(CSc1nnc2c(n1)[nH]c1ccc(F)cc12)Nc1ccccc1F	–	inactive: 15.9%
N#C/C(=C/c1ccc(N2CCCCC2)o1)C(=O)Nc1ccc2ccccc2c1	inconclusive: 70.8 µM [inhibitor, partial curve]	–
CC1CCN(C(=O)c2cc3c(=O)n(C)c4cc(Cl)ccc4c3s2)CC1	inconclusive: 89.1 µM [inhibitor, single point]	–
COc1ccc(C2c3[nH]c4ccccc4c3CCN2Cc2ccoc2)c(F)c1 (centres undefined)	inconclusive: 39.8 µM [inhibitor, partial curve]	–
COc1ccc(-c2nnc(Sc3nc4ccccc4o3)c3ccccc23)cc1	inconclusive: 14.1 µM [inhibitor, partial curve]	–
O=C1C=C(c2ccc(Cl)cc2)C(=O)N1Nc1ccccc1	inconclusive: 2.24 µM [inhibitor, full curve, poor fit]	–

SMILES	Potency	activity change, negative = inhibition
O=C(CSc1ccc2nnc(-c3cccnc3)n2n1)NCc1ccco1	inconclusive: 79.4 µM [inhibitor, single point]	–
N#CC1C(=O)c2ccccc2C1c1ccccc1 (centres undefined)	–	inactive: 7.88% [at 11.4 µM]
Cc1nn(-c2cccc(Cl)c2)c2c1C(c1cccnc1)C(C#N)=C(N)O2 (centres undefined)	inconclusive: 10 µM [inhibitor, partial curve, poor fit]	–
N=c1ccn(Cc2c(Cl)cccc2Cl)cc1	–	inactive: 11.2%
NC(=O)c1ccccc1NS(=O)(=O)c1ccc(S(=O)(=O)N2CCCC2)cc1	inconclusive: 35.5 µM [inhibitor, single point]	–
O=C(CN1C(=O)c2ccccc2S1(=O)=O)c1ccc(O)c(O)c1	–	inactive: -21%
Cc1ccc(CN2CCCn3nc(C(=O)NCc4ccc(N(C)C)cc4)cc3C2=O)cc1	–	inactive: 7.75% [at 57.1 µM]
Cc1ccccc1OCc1n[nH]c(=S)n1Cc1ccccc1	–	inactive: -13.9% [at 57.1 µM]
Cc1ccc(-c2nc(CS(=O)CC(=O)NC(C)CCc3ccccc3)c(C)o2)cc1 (centres undefined)	inconclusive: 35.5 µM [inhibitor, partial curve, poor fit]	–
O=C(NC(Nc1ncc(S(=O)(=O)c2ccc([N+](=O)[O-])cc2)s1)(C(F)(F)F)C(F)(F)F)c1ccc(Cl)cc1	inconclusive: 56.2 µM [inhibitor, single point]	–
Cc1cccc(-n2cc(CN3CCN(Cc4nccn4C)CC3)c(-c3cccc(F)c3)n2)c1	–	inactive: 12.7%
O=C(CCS(=O)(=O)c1cccc2nsnc12)N1CCN(C(=O)c2ccco2)CC1	inconclusive: 50.1 µM [inhibitor, partial curve, poor fit]	–
O=C(c1cc(-c2ccccc2O)on1)N1CCc2ccccc2C1	–	inactive: 8.9% [at 57.1 µM]
CC[C@@]1(c2ccccc2)C(=O)N(C(=O)OC)N1C(=O)OC	active: 1.26 µM	–
c1ccc(-c2cn3ccccc3n2)cc1	inconclusive: 89.1 µM [inhibitor, single point]	–
Cc1oc(-c2ccccc2F)nc1CS(=O)CC(=O)NCc1cccs1 (centres undefined)	inconclusive: 20 µM [inhibitor, single point]	–
CCOc1ccccc1C(c1c(O)nc(SC)[nH]c1=O)c1c(O)nc(SC)[nH]c1=O	inconclusive: 12.6 µM [inhibitor, full curve]	–
CCCN(c1ccc(C(C)C)cc1)S(=O)(=O)c1ccc2c(c1)n(C)c(=O)c(=O)n2C	inconclusive: 89.1 µM [inhibitor, single point]	–
O=C(COC(=O)c1ccccc1)Nc1ncc([N+](=O)[O-])s1	–	inactive: -22.7% [at 57.1 µM]
O=C(CCN1CCCCCC1)c1ccccc1	active: 0.891 µM	–
CC(=O)Nc1ccc(N=NC2C(=O)N(C(N)=S)N=C2C)cc1 (centres undefined)	inconclusive: 44.7 µM [inhibitor, partial curve, poor fit]	–
N#Cc1c(N)nc2c(c1-c1ccncc1)CCCCC2	inconclusive: 56.2 µM [inhibitor, partial curve, poor fit]	–
CN1N/C(=C\c2ccccc2)N=C2C(=O)N(C)C(=O)N=C21	active: 14.1 µM	–

SMILES	Potency	activity change, negative = inhibition
O=C(NC(=S)Nc1ccccc1Br)C1CCCC1	inconclusive: 39.8 µM [inhibitor, partial curve]	–
COc1cc(/C=C(/C#N)C(=O)c2c(C)[nH]c3ccccc23)ccc1OCC#N	inconclusive: 17.8 µM [inhibitor, full curve]	–
O=C(CCl)c1ccc2c(c1)CCCC2	inconclusive: 50.1 µM [inhibitor, partial curve, poor fit]	–
Cc1c(Cl)cnc(NC(=O)COC(=O)C(NC(=O)c2ccco2)C(C)C)c1Cl (centres undefined)	active: 50.1 µM	–
COc1ccc(NC(=S)Nc2cc(C)ccn2)c(OC)c1	inconclusive: 2.82 µM [inhibitor, partial curve, poor fit]	–
CC(=NCc1ccco1)C1=C(O)c2ccccc2C1=O	inconclusive: 50.1 µM [inhibitor, partial curve]	–
CCOc1ccc(N(C(=O)c2ccc(Cl)cc2)S(=O)(=O)c2ccc3c(c2)n(C)c(=O)n3C)cc1	inconclusive: 89.1 µM [inhibitor, partial curve, poor fit]	–
Cc1ccc(CNc2nc3ccc(Cl)cc3n3cnnc23)cc1	–	inactive: 11.4%
CCc1cc(=O)oc2c3c(cc(OCC(=O)NCCC(=O)O)c12)OC(C)(C)CC3	inconclusive: 15.8 µM [inhibitor, partial curve, poor fit]	–
COc1ccc(-n2nc3ccc(NC(=O)c4c(OC)cccc4OC)cc3n2)cc1	–	inactive: 95.3%
CCCCCCCCCC(=O)NC(CN1CCOCC1)[C@H](O)c1ccccc1 (some centres undefined)	inconclusive: 31.6 µM [inhibitor, full curve] and inconclusive: 37.7 µM [inhibitor, partial curve, poor fit]	–
COc1ccccc1NC(=O)c1cc2cc(Br)ccc2oc1=N	–	inactive: 8.12%
NS(=O)(=O)c1ccc(NC(=S)NC(=O)C2CCCCC2)cc1	inconclusive: 70.8 µM [inhibitor, partial curve, poor fit]	–
O[C@@H]1[C@@H](O)C=C2CCN3Cc4cc5c(cc4[C@H]1C23)OCO5 (some centres undefined)	inconclusive: 89.1 µM [inhibitor, single point]	–
CCOC(=O)c1ccc(CNC(=O)c2cc(C(C)(C)C)oc2C)o1	inconclusive: 25.1 µM [inhibitor, partial curve]	–
O=[n+]1c2c(n([O-])c3cc(F)c(F)cc31)CCCC2	active: 3.55 µM	–
C/C(CC(=O)Nc1c(C)cc(C)cc1C)=N\NC(=O)c1cnccn1	inconclusive: 70.8 µM [inhibitor, single point]	–
Cc1cccc(OCC(=O)NCc2nnc3ccc(C(F)(F)F)cn23)c1C	–	inactive: 2.39%
Cc1csc2nc(COC(=O)CNC(=O)c3ccc(F)cc3)cc(=O)n12	–	inactive: 13.9% [at 57.1 µM]
Cc1ccc(C(=O)NC(=C(Cl)Cl)S(=O)(=O)c2ccccc2)cc1	inconclusive: 44.7 µM [inhibitor, single point]	–
CCc1ccc(NCc2cc3ccc(OC)cc3n(CC(=O)Nc3ccccc3C)c2=O)cc1	–	inactive: 12%
O=C(NCc1cccs1)C1CCCN1C(=O)Nc1ccc(F)cc1 (centres undefined)	inconclusive: 89.1 µM [inhibitor, single point]	–
O=C(COC(=O)c1ccc([N+](=O)[O-])o1)Nc1nc2ccccc2s1	inconclusive: 15.8 µM [inhibitor, full curve]	–
